Data as given in the supplement of paper PMC7826260.
The other results are listed elsewhere or left out. The data describe in vitro nicking of single-stranded DNA by Rep domains for 1 h at 37 °C with 3 µM enzyme; only the middle of the 90-letter strands is printed. Values are log2 of uncut reads against the no-enzyme pool; the lower, the more was cut; hits are not called. Because reads are shares of a total, they shift together, so uncut sequences can rise above 0 when many others are cut.

Assays:
Experiment in all cases: uncleaved DNA left, log2 of reads against the no-enzyme library (log2 ratio); higher = less cleavage (more negative = more Rep cleavage of the k-mer); sequences stand for … in CTCGTCCG…ACCGGAGA
[1] = system: T1, Rep nickase domain of Muscovy duck circovirus
T1 sequence (protein, residues 1-111, tag omitted): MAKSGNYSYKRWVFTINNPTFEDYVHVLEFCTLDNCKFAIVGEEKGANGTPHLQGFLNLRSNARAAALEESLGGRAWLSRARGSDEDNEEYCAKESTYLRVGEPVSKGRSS
Description: (§1)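 A pool of 90-nt single-stranded DNAs with seven random bases just before the constant AC of the nick site (name = the seven bases) was cut by 3 µM recombinant His6-SUMO-tagged Rep nickase domain (300 nM DNA, 50 mM HEPES pH 8.0, 50 mM NaCl, 1 mM MnCl2, 1 h, 37 °C, three replicates). Uncut DNA was amplified and sequenced.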

[2] = system: T2, Rep nickase domain of banana bunchy top virus
T2 sequence (protein, residues 1-94, tag omitted): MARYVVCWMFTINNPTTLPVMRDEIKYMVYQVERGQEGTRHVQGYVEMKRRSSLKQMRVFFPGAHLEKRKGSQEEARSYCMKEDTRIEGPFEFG
Description: as §1

[3] = system: T3, Rep nickase domain of cabbage leaf curl virus
T3 sequence (protein, residues 1-116, tag omitted): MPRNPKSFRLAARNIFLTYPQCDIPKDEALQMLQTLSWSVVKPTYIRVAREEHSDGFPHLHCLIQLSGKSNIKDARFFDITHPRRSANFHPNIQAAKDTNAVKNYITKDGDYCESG
Description: as §1

[4] = system: T4, Rep nickase domain of chickpea chlorotic dwarf virus
T4 sequence (protein, residues 1-124, tag omitted): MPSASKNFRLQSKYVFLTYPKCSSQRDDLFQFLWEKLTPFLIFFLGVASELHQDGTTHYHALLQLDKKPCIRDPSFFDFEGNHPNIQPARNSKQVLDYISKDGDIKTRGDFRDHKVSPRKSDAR
Description: as §1

[5] = system: T5, Rep nickase domain of faba bean necrotic yellows virus
T5 sequence (protein, residues 1-98, tag omitted): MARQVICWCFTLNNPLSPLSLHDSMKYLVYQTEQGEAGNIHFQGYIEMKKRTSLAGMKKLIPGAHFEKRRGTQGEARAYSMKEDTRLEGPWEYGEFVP
Description: as §1

[6] = system: T6, Rep nickase domain of maize striate mosaic virus
T6 sequence (protein, residues 1-117, tag omitted): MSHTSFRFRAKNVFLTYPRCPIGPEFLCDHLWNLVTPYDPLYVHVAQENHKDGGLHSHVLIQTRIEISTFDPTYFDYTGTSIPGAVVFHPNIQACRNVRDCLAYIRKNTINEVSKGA
Description: as §1

[7] = system: T7, Rep nickase domain of porcine circovirus 2
T7 sequence (protein, residues 2-116, tag omitted): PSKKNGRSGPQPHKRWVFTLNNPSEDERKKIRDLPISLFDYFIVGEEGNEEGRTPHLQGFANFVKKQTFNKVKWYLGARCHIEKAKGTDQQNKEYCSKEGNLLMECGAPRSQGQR
Description: as §1

[8] = system: T8, Rep nickase domain of tomato yellow leaf curl virus
T8 sequence (protein, residues 1-136, tag omitted): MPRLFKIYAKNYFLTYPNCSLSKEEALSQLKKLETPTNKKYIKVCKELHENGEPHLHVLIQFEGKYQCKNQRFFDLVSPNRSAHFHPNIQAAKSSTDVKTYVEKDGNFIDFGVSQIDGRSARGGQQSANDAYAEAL
Description: as §1

[9] = system: T9, Rep nickase domain of wheat dwarf virus
T9 sequence (protein, residues 1-137, tag omitted): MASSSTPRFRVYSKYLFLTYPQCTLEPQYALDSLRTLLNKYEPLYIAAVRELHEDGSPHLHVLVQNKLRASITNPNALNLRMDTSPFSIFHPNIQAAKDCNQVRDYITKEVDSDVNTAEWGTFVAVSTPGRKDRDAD
Description: as §1

Sequence | uncleaved DNA left (log2) [1] | uncleaved DNA left (log2) [2] | uncleaved DNA left (log2) [3] | uncleaved DNA left (log2) [4] | uncleaved DNA left (log2) [5] | uncleaved DNA left (log2) [6] | uncleaved DNA left (log2) [7] | uncleaved DNA left (log2) [8] | uncleaved DNA left (log2) [9]
ATGTATC | -0.118 | -0.0511 | 0.0256 | -0.122 | -0.0989 | -0.566 | -0.221 | -0.0399 | -0.0832
AGCGCTC | 0.0693 | 0.0309 | 0.097 | 0.534 | 0.0665 | 1.14 | 0.0166 | -0.0605 | -0.0241
GTACATA | -0.103 | 0.0775 | 0.442 | 1.11 | -0.0203 | 1.78 | 0.0953 | -0.0937 | 0.139
ATGCAAC | -0.0609 | -0.0781 | -0.0576 | -1.16 | -0.0254 | -0.805 | -0.0587 | -0.0559 | -0.08
TGGCCCC | 0.107 | 0.106 | 0.45 | 0.917 | -0.175 | 1.31 | 0.0676 | 0.109 | 0.0238
CAGGTCT | 0.0225 | -0.0169 | -0.0317 | -1.78 | -0.0532 | 0.686 | -1.57 | -0.0159 | -0.0241
TATAATC | 0.0381 | 0.0934 | 0.11 | -0.313 | 0.184 | -0.455 | 0.0722 | 0.19 | 0.257
GGGGCTA | 0.0199 | 0.158 | 0.92 | 2.05 | -0.0291 | 2.35 | 0.269 | 0.0548 | 0.247
ATACCCC | -0.0446 | 0.00644 | 0.138 | 0.0739 | 0.041 | 0.0381 | -0.478 | -0.0777 | 0.108
GACATCA | -0.00556 | 0.127 | 0.507 | 0.605 | 0.0646 | 1.38 | 0.109 | 0.109 | 0.224
GCGAGGA | 0.0778 | 0.0354 | 0.227 | 0.564 | -0.0865 | 0.684 | 0.0189 | -0.0901 | 0.0359
GAAACTG | -0.0133 | -0.0211 | 0.0145 | 0.623 | 0.00393 | 1.36 | 0.0245 | -0.0705 | 0.0448
GCCTCTC | -0.00973 | -0.198 | 0.0524 | 0.166 | -0.087 | 0.163 | -0.0628 | -0.108 | -0.103
TATTCGA | -0.267 | -0.108 | -0.731 | -1.09 | -0.0744 | -1.31 | -0.114 | -0.0796 | -0.218
TCAAGTC | 0.0899 | -0.0924 | -0.896 | -1.56 | -0.0972 | -0.897 | 0.0175 | -0.0395 | -0.239
